According to the supplement of paper PMC10338343:
± gives the standard deviation. Whole data set: some 5,500 sequences, median “pre-steady-state target cleavage rate” near 0.1, cut for the highest 2% near 0.64. Only a part is listed here, and it is no random draw.

These sequences were tested on MIWI (PIWIL1) piRISC loaded with piRNA #2 (30 nt) (assay: pre-steady-state target cleavage rate (min^-1); MIWI and MILI are mouse PIWI proteins and EfPiwi is from a freshwater sponge; tags in brackets are library labels; higher = faster piRNA-guided slicing of the target). Conditions: guide: piRNA #2 5'p-UUAGGUAACCCAGUAGAUCCAGAGGAAUUC; auxiliary factor: 500 nM mouse GTSF1.
Summary of the method: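 The pre-steady-state cleavage rate was obtained by Cleave-'n-Seq with a burst-and-steady-state fit. A transcribed, DNA-blocked target RNA library (0.1 nM) was mixed with 1 nM active affinity-purified piRISC carrying one synthetic guide, with or without 500 nM GTSF1 partner protein, in HEPES–potassium acetate buffer at 33 °C for 0–8 or 0–960 min. Uncleaved targets were sequenced and normalised to depth and to weakly complementary targets, with three trials pooled and k3 capped at 0.0001 min^-1.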

Sequence | pre-steady-state target cleavage rate
GAAUUCCUCUGGAUCUACUGUGGUUACCUAA | 0.00388 ± 0.0038
GAAUUCCUCUGGAUCUACUGGGUUACCAAA | 0.318 ± 0.047
CAAUUCCUCUGGAUCUACACCGUUACCUAA | 0.0914 ± 0.012
CUUAUGCUCUGGAUCUACUGGGAUACCUAA | 0.133 ± 0.017
GAAUUCCUCUGCAUCUACAGGGUUACCUAA | 0.273 ± 0.021
CUUAAGGUCUGGAUCUACUGGGUUACCAUA | 0.203 ± 0.029
CUUAACCUCUAGGAUCUACUGGGUUACCUAA | 0.199 ± 0.021
CAUUUCCUCUGGAUCUACAGGGUUACCUAA | 0.373 ± 0.039
CAAUUCCUCUGGAUCUUGUGGGUUACCUAA | 0.00475 ± 0.0032
CAAUUCCUCUCGAUCUACUGGGUUAGCUAA | 0.507 ± 0.046
CUUUUCCUCUGGAUCUUCUGGGUUAGCUAA | 0.084 ± 0.021
CUUAUCCUCUGGAUCUACUGGGUUUACCUAA | 0.449 ± 0.052
CUUAAGGAGUGGUUCUACAGGGUUACCUAA | 0.00873 ± 0.0022
CAAUUCCUCAGGAUCAACUGGGUUACCUAA | 0.526 ± 0.058
CUUAAGGUGCUGGAUCUACUGGGUUACCUAA | 0.152 ± 0.017
CUUAACCUCUGCAUCUACUGGGUUACCUUA | 0.129 ± 0.018
CUUAAGCUCUGGCAUCUACUGGGUUACCUAA | 0.14 ± 0.026
CUUAAGGUCUGGAUCUUCUGGGUUAGCUAA | 0.0288 ± 0.0091
CUUAAGCUAUGGAUCUACUGGGUUACCUAA | 0.298 ± 0.036
CUUAUCCUCUGGAUCUAUGGGUUACCUAA | 0.011 ± 0.0027
GAAUUGGUCUGGAUCUACUGGGUUACCUAA | 0.0831 ± 0.027
CUUAUCCUCUGGAUCUACUGGGAUUACCUAA | 0.16 ± 0.037
CUUAUCCUCUGGAUCUACUGGGUUCCCUAA | 0.241 ± 0.043
CUUAAGCUCUGGAUCUACUGGGUUACAUAA | 0.53 ± 0.051

Sequence | pre-steady-state target cleavage rate
CUUAAGCUCUGGAUGUACUGGGUUAGCUAA | 0.0878 ± 0.011
GAAUUCCUCUGCAUCUACUGGGUUUCCUAA | 0.259 ± 0.061
CUUAAGGUCUGGUUCUACUGGGUUACCUUA | 0.0228 ± 0.0053
CUAUUCCUCUGGAUCUAGACCCAAUGGAUA [g14:g28:cont:t1A] | < 0.0001
CUUAAGGUCUGGAUGAACUGGGUUACCUAA | 0.0299 ± 0.029
CAAUUCCUCUGGUUCAACUGGGUUACCUAA | 0.625 ± 0.046
CUUAAGGAGUGGAUCUACUGGGUGUACCUAA | 0.0301 ± 0.013
CUUAAGGAGUGGAUCUACUGGGUUACCUA | 0.115 ± 0.021
CUAUUGCUCUGGAACUACUGGGUUACCUAA | 0.212 ± 0.034
CUUAUCCUCUGGAACUACUGGGUAACCUAA | 0.116 ± 0.017
CUUAUCCUGUGGAACUACUGGGUUACCUAA | 0.157 ± 0.049
CUAUUCCUCUGGAUCUACUGGGUUACGAUA | 0.284 ± 0.057
CUAUUCCUCUCGAUCUACUGGGUUACCUAA | 0.734 ± 0.063
CUUUUCCUCUGGAUGUACUGGGUUACCUAA | 0.464 ± 0.038
CUAUUCCUCUGGAUCUACUGCGUUUCCUAA | 0.0815 ± 0.022
CUUAACCUGAGGAUCUACUGGGUUACCUAA | 0.0797 ± 0.012
GAAUUCCUCUGGAUCGUACUGGGUUACCUAA | 0.00833 ± 0.0048
CUUAUCCUCUGCUUCUACUGGGUUACCUAA | 0.318 ± 0.031
CUUAACCACUCGAUCUACUGGGUUACCUAA | 0.347 ± 0.028
CUUUUCCUGUGGAUCUACAGGGUUACCUAA | 0.288 ± 0.02
CAAUUCCUCUAGGAUCUACUGGGUUACCUAA | 0.434 ± 0.048
CUUAAGGUCUGCAUCAACUGGGUUACCUAA | 0.0597 ± 0.029
GAAUUCCUCUGGAUGUACUGGGUUACGUAA | 0.549 ± 0.042
CUUAAGGAGUGGAUCUACUGGGUAUACCUAA | 0.0219 ± 0.0075

Sequence | pre-steady-state target cleavage rate
CAAUUCCUCUGGAUCAACUGGGUUACCAAA | 0.353 ± 0.054
CUUAAGGUCAGGAUCUACUGGCUUACCUAA | 0.0146 ± 0.0098
CUUAAGGAGUGGAUCAACUGCGUUACCUAA | 0.00804 ± 0.0051
CUUAAGGUCUAGGAUCUACUGGGUUACCUAA | 0.0921 ± 0.021
CUUAAGGUGUGGAUCUACUGGCUUACCUAA | 0.0225 ± 0.015
GAUUUCCUCUGGAUCUACUGGGUUUCCUAA | 0.155 ± 0.033
CUUAAGGAGAGGAUCUACAGCGUUACCUAA | 0.00335 ± 0.0028
CAAUUCCUCUGGAUCUACUGGGUUACCUAAA | 0.466 ± 0.063
CUUAUCCUCUGGAUCUACUGGGUAAGCUAA | 0.189 ± 0.052
GAAUACCUCUGGAUCUACUGCGUUACCUAA | 0.456 ± 0.04
CUUAUCCUCUGGAUCUUCUGGGUAACCUAA | 0.0522 ± 0.013
CAAUUCGUCUGGAUCUACUCGGUUACCUAA | 0.0421 ± 0.022
CUUAAGGUCUGGAUCUACUGGGUUACUUAA | 0.422 ± 0.044
CAAUUCCUCUGGAUCUACUGGGUUACCUA | 0.484 ± 0.057
CUUAAGGAGACGAUCUACUGGGUUACGUAA | 0.00601 ± 0.003
CAAUACCUCUGGAUCUACUGGGUUACCUAA | 0.395 ± 0.06
CUAUUGCUCUGGAUCUACUGGGAUACCUAA | 0.142 ± 0.029
CUUAUCCUCACCAUCUACUGGGUUACCUAA | 0.246 ± 0.038
CUUAACCUCUGCAUCUACUGGGUUACCAAA | 0.133 ± 0.02
CAAUUCCUCUGGAUCUAGUGGGUUACCUAA | 0.239 ± 0.031
CUUAAGGUCAGGAUCUACUGGGUUAGCUAA | 0.00922 ± 0.0075
CUUAACCUUCUGGAUCUACUGGGUUACCUAA | 0.281 ± 0.028
CUAUUCCUCUCGAUCUACUGGGUUAGCUAA | 0.522 ± 0.044
